From PubChem BioAssay AID1347417 (National Center for Advancing Translational Sciences (NCATS), 2020)
The campaign covered roughly 120,000 compounds. About 5,300 (4.4%) were called active. This list was built around the results that the source calls inconclusive (neither active nor inactive); the mix of calls is not that of the screen. Calls come from the whole dose curve; as a rule, active = well fitted inhibition curve with a large enough effect; inconclusive = small, poorly fitted or top-dose-only effect; inactive = no such curve, though single readings can be large or run the other way. Potencies of inconclusive entries are doubtful fits and often do not repeat.

experiment: qHTS Primary assay for Inhibitors of Plasmodium falciparum Dd2 growth in vitro; note: nearly all actives have a fitted effect of over 65% in size;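 for activity, negative = inhibition: plate controls were DMSO vehicle for no effect and reference drug for full effect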; details: P. falciparum Dd2 growth, SYBR Green, 72 h; activity, negative = inhibition: at 28.9 µM (top of the series) unless noted; series mostly up to 28.9 µM
Outline: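 Readout: SYBR Green fluorescence, 485 nm excitation, 535 nm emission, after ~16 h lysis at 37C. Before that, Dd2-infected red cells (2.5% hematocrit) grew 72 h with compound, 29 uM top final concentration.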
Potency is the fitted concentration of half-maximal effect; tags give direction and shape of the fitted curve.

| Structure (SMILES) | Potency | activity, negative = inhibition |
| --- | --- | --- |
| CCn1c(=O)n(CC)c2cc(N3CCCCC3)c(NC(=O)Nc3cc(C)cc(C)c3)cc21 | active: 10 µM | – |
| Cc1ccc2cc(CCC(=O)N3CCOCC3)c(=O)[nH]c2c1 | inconclusive: 3.98 µM [inhibitor, partial curve, poor fit] | – |
| COc1ccc(Cl)cc1NC(=O)Cn1c(=O)n(Cc2ccco2)c(=O)c2cccnc21 | inconclusive: 10 µM [inhibitor, single point] | – |
| CCOc1ccc(NC(=O)C(NS(=O)(=O)c2cccc3nsnc23)c2ccccc2)cc1 (stereo unspecified) | inactive | – |
| COc1ccc(C(=O)N2CCC(c3n[nH]c(=O)n3-c3ccc(C)cc3)CC2)cn1 | inactive | – |
| COc1ccc(C(=O)N2C[C@@H]3CCCN4CCC[C@@H]([C@H]34)[C@H]2CCCC(=O)NCc2ccccc2)cc1 | inconclusive: 17.8 µM [inhibitor, single point] | – |
| N#CC1CCN(C(=O)c2nc(-c3cccnc3)c3cnccn23)CC1 | inactive | – |
| Cc1cc(C)c(CSc2nnc(C)n3c2cc2occc23)c(C)c1 | inconclusive: 11.2 µM [inhibitor, single point] | – |
| CCN(Cc1ccccc1)C(=O)c1nc(-c2cccc(F)c2)n2c1CCCCC2 | inconclusive: 8.91 µM [inhibitor, partial curve, poor fit] | – |
| Cc1ccn2c(Nc3ccccc3C)c(-c3ccccn3)nc2c1 | active: 3.16 µM | – |
| CCC1c2nccn2CCCN1C(=O)c1ccc2c(c1)OCO2 (stereo unspecified) | inactive | – |
| Cc1ccc(SCc2nc(-c3ccc(C(=O)NCc4ccc(Cl)cc4)cc3)oc2C)cc1 | inactive | – |
| CCOCC(=O)N1C[C@@H]2CCCN3CCC[C@@H]([C@H]23)[C@H]1CCCC(=O)NC | inactive | – |
| CC(=O)N1CCc2nn(CC(=O)Nc3cccc(Cl)c3C)c(=O)cc2C1 | inconclusive: 7.94 µM [inhibitor, partial curve] | – |
| O=C(NC1CCCCC1)c1cc(Nc2cccc(C(F)(F)F)c2)nc2ccccc12 | inconclusive: 17.8 µM [inhibitor, single point] | – |
| COc1cc(C(=O)Nc2nc3nc(-c4ccccc4)cc(=O)n3[nH]2)cc(OC)c1OC | inactive | – |
| CC(C)(C)C(=O)N1CCC(c2nn(-c3ccc(Cl)cc3)c(=O)[nH]2)CC1 | active: 8.91 µM | – |
| O=C(C1CCC1)N1CCCCCC1c1nnc(-c2ccccc2)o1 (stereo unspecified) | inconclusive: 0.251 µM [inhibitor, full curve] | – |
| Cc1cccc(CC(=O)N2CCC[C@H](n3c(=O)n(Cc4ccccc4)c4cccnc43)C2)c1 | inconclusive: 5.01 µM [inhibitor, partial curve, poor fit] | – |
| Cc1ncc2n1C(=O)N(C1CCN(C(=O)c3ccccc3Cl)CC1)C2 | inactive | – |
| Cn1c(=O)[nH]cc(CC(=O)N2C[C@H](C3CC3)[C@@H](N)C2)c1=O | inactive | – |
| Cc1ccccc1CN1Cc2nc(-c3cnn(C)c3)ccc2OCC1=O | inactive | – |

| Structure (SMILES) | Potency | activity, negative = inhibition |
| --- | --- | --- |
| CCOc1ccccc1CN1CCC2(CCN(C(=O)C3CC3)CC2)Oc2ccccc21 | inactive | – |
| CCNC(=O)c1cccnc1OC1CCN(C(=O)CC2CCCC2)C1 (stereo unspecified) | inconclusive: 0.199 µM [inhibitor, partial curve, poor fit] | – |
| COc1ccc(-c2cc(N3CCCC(NC(=O)c4ccc5ncccc5c4)C3)n[nH]2)cc1 (stereo unspecified) | inconclusive: 3.16 µM [inhibitor, partial curve, poor fit] | – |
| Cc1oc2ncn(CC(C)C)c(=O)c2c1C(=O)N1CCN(c2cccc(C(F)(F)F)c2)CC1 | inconclusive: 17.8 µM [inhibitor, single point] | – |
| CN(C)c1ccc(CN2CCC(N3CCCCCC3=O)CC2)cc1 | inconclusive: 3.16 µM [inhibitor, full curve] | – |
| Cc1ccc(Cn2c(C3CCN(C(=O)c4cc(Cl)ccc4F)CC3)n[nH]c2=O)cc1 | inconclusive: 11.2 µM [inhibitor, single point] | – |
| COc1ccc(C(=O)NCCn2cc(SCC(=O)Nc3cccc(C)c3)c3ccccc32)cc1 | inconclusive: 10 µM [inhibitor, single point] | – |
| CCN1CC(c2ccccc2)CC2(CCN(C(=O)Nc3ccccc3)CC2)C1 (stereo unspecified) | inconclusive: 11.2 µM [inhibitor, partial curve, poor fit] | – |
| COCCNC(=O)[C@H]1CN2CCC1C[C@@H]2Cn1cc(C2(O)CCCCC2)nn1 (stereo partly specified) | inactive | – |
| CCOc1ccccc1NC(=O)[C@H]1CCC[C@H]1NC(=O)c1ccc(OC)cc1 | inconclusive: 17.8 µM [inhibitor, single point] | – |
| CCS(=O)(=O)Nc1ccc(C2(C(=O)NCc3cc(F)cc(F)c3)CCCCC2)cc1 | inconclusive: 12.6 µM [inhibitor, single point] | – |
| CCC1(N2CCN(S(=O)(=O)c3ccc4c(c3)CCCC4)CC2)CCN(C(=O)C(C)C)C1 (stereo unspecified) | inconclusive: 12.6 µM [inhibitor, partial curve, poor fit] | – |
| COc1ccc(C(=O)Nc2nc3c(s2)C[C@@H]2[C@](C)(CO)[C@H](O)CC[C@@]2(C)[C@@H]3CC(=O)NC2CCCC2)cc1 | inconclusive: 2.82 µM [inhibitor, full curve, poor fit] | – |
| COc1ccc(-n2nc3ccc(NC(=O)c4ccc(-c5cc(Cl)ccc5Cl)o4)cc3n2)cc1 | inconclusive: 1.26 µM [inhibitor, full curve, poor fit] | – |
| N#Cc1ccc(C(=O)N2CCC(Cc3nc(-c4ccccc4)n[nH]3)C2)cc1 (stereo unspecified) | inactive | – |
| CC1CN(C(=O)Nc2ccc(C(=O)NCCc3ccccc3)cc2)c2ccccc2S1 (stereo unspecified) | inconclusive: 0.199 µM [inhibitor, full curve, poor fit] | – |
| O=C(COc1ccccc1)NC1CCCc2c1[nH]c1c(Cl)cccc21 (stereo unspecified) | inconclusive: 11.2 µM [inhibitor, single point] | – |
| O=C(NCc1ccc(OC(F)(F)F)cc1)N1CCC2(CC1)CN(c1ccccc1)C2=O | inconclusive: 17.8 µM [inhibitor, single point] | – |
| Clc1ccccc1C1(c2ccnc(C3CC3)n2)CCNCC1 | active: 2.24 µM | – |
| Cc1occc1C(=O)N1CC(F)(F)C[C@H]1c1nnc(C2CC2)o1 | inactive | – |
| Cc1cc(C)c(CNC(=O)c2cc(-c3ccccc3O)cc3c2OCCN3C)c(=O)[nH]1 | inconclusive: 1.41 µM [inhibitor, partial curve, poor fit] | – |
| COC(=O)c1ccc2nc(C[C@@H]3C[C@@H](C(C)C)[C@H](CNC(=O)CC(C)(C)CC(=O)O)C=C3C)[nH]c2c1 | inconclusive: 11.2 µM [inhibitor, single point] | – |

| Structure (SMILES) | Potency | activity, negative = inhibition |
| --- | --- | --- |
| Cc1ccc(-c2noc([C@@H]3C[C@@H](O)CN3Cc3ccc(C(=O)O)cc3)n2)cc1F | inactive | – |
| NCC(=O)N1Cc2ccccc2CC2(CCN(CC3CCOCC3)C2)C1 (stereo unspecified) | active: 8.91 µM | – |
| COc1cccc(NC(=O)C2CCCN(S(=O)(=O)c3c(C)[nH]c(=O)[nH]c3=O)C2)c1 (stereo unspecified) | inconclusive: 10 µM [inhibitor, single point] | – |
| CCN(c1cc(C)cc(C)c1)S(=O)(=O)c1nnc(NC(=O)C2CCCCC2)s1 | inconclusive: 10 µM [inhibitor, single point] | – |
| Cc1noc(C)c1Cc1ccc(C(=O)N2CC(N(Cc3cccnc3)CC(C)C)C2)o1 | inconclusive: 17.8 µM [inhibitor, single point] | – |
| O=C(O)CCn1ncc2cc(OCC3CCN(C(=O)CCC(F)(F)F)CC3)ccc21 | inactive | – |
| COc1cccc(CC(=O)N2CCCCCNC(=O)[C@@H]3CCC[C@@H]32)c1 | inactive | – |
| COc1ccc(C(=O)N2C[C@@H](F)[C@@H](OCc3nc4ccc(F)cc4[nH]3)C2)cc1 | inconclusive: 10 µM [inhibitor, partial curve] | – |
| Cn1cc(CN2C[C@@H](F)[C@@H](OCc3nc4ccc(F)cc4[nH]3)C2)cn1 | inconclusive: 11.2 µM [inhibitor, single point] | – |
| COc1cc(-c2ccno2)ccc1S(=O)(=O)N1CCN(c2cc(C)ccc2C)CC1 | – | inconclusive: -30.5% [inhibitor] [at 5.79 µM] |
| O=C(CN1C(=O)NC(c2ccc(Cl)cc2)C2=C1COC2=O)NCCc1ccc(Cl)cc1 (stereo unspecified) | inactive | – |
| CC(C)c1ccc(S(=O)(=O)c2nnn3c2nc(NCCc2ccccc2)c2sccc23)cc1 | inconclusive: 8.91 µM [inhibitor, single point] | – |
| CC(CCc1ccccc1)NC(=O)Cn1ncc2c3ccccc3n(Cc3ccc(F)cc3)c2c1=O (stereo unspecified) | inactive | – |
| COc1ccc([C@@H](NC(=O)c2ccc3cccc(F)c3n2)C2CC(O)C2)cn1 (stereo partly specified) | inactive | – |
| Cn1cc(CN(C(=O)Nc2ccc(Cl)c(Cl)c2)C2CCCCC2)c2ccccc21 | inconclusive: 1.58 µM [inhibitor, partial curve, poor fit] | – |
| COc1ccc(-c2nc(N3CCOCC3)cc3c2CN(Cc2cnn(C)c2)C3=O)cc1OC | inconclusive: 20 µM [inhibitor, single point] | – |
| COc1ccc(OC2CCN(C3CCCC3)CC2)c(C(=O)NCCCN2CCCC2=O)c1 | inactive | – |
| CC1CCCN(C(=O)Cc2cccn2-c2ccc(F)cc2)C1 (stereo unspecified) | inconclusive: 17.8 µM [inhibitor, single point] | – |
| Cc1ccc(NC(=O)CSc2ncc3c(n2)-c2ccccc2N(Cc2cccc(F)c2)S3(=O)=O)cc1F | inconclusive: 17.8 µM [inhibitor, single point] | – |
| O=C(NC1CCCCC1)C1CN(C(=O)c2ccncc2)CC12CCOCC2 (stereo unspecified) | inactive | – |
| CN(C)C(=O)N1CCN([S+](=O)([O-])c2ccc(Cl)nc2)C(=O)C1 | inactive | – |
| CCOCCCNC(=O)N1CCc2c(c(-c3nncn3Cc3ccccc3)nn2C)C1 | inconclusive: 5.01 µM [inhibitor, partial curve, poor fit] | – |
